Source: the supplement of paper PMC12632987
Whole data set: some 4,500 sequences, median “median log2 fold change of GCK-ALFA target abundance (FLAG IP / Myc IP barcode read proportion)” near 0.078, cut for the lowest 2% near -0.6. This is one part of the list.

B1: GBRAP_128_3318 (protein)
chain: MDEERLAEFEALAKALKTADEAEAAKLTAEMVALIGELNEEEREKAAEIFEKALKELDAAKLDVVADTLREERPKLDPLAARVVADLEVEALNLAEEKEE
B2: GBRAP_57_6441 (protein)
chain: MSRLEKAEELAEKIRKMLEENAPKEEILKAFKELLDLLSREGLLDLALLLDPSARADDSKEELKEKLLEIFRKALEEEGKEAALDMVDLALGVLEMEESE
B3: GBRAP_160_4047 (protein)
chain: SEKVKKAKEFATKEFDETIALMEDLSPEEAAVAMEVTVGQVLLEAEELGIETTPELDKVLDRARAMRAAVRADPSTTVEQVIAAAKELREEFLKALEKQD
B4: GBRAP_74_6557 (protein)
chain: SAEFRARVEAARAARDLDALIALAREALEAGDKENALLALEAALELFREHREEVSPEQIAALADVIAALYEKVDMLDLSDELLRAMAEALAAAVEAEKAA
B5: GBRAP_128_3273 (protein)
chain: MNEEVVAFAKEKVEKIKNSNDEEKREIAREIMERILASSLEEAEAMIEVIEEKLPELSAEDLDILADVAREARPKASPEKANLIAGLEVEALNQAEELEE
B6: GBRAP_184_5333 (protein)
chain: TTLRVHIENKSTEEIIKEVEEALKEAAAKGADLLVTIDASGYSTEELEKILEEIGELAKKEGVKNLTIGIDKEVTEEEADKLIKIADKYGIKLVLALSDE
B7: GBRAP_35_5545 (protein)
chain: DFDEETVEMLLNTMEDIVLALPDVSPEEKLILARHLIDLAEKAIEEKPKNVELLKRGIEVLERAIEIVKASDLPEEEREELIERLEEVKEKFEKLLKENE
B8: GBRAP_52_6335 (protein)
chain: MEEKIKEYAEKIVEAVKAGDEEKALALTREAAKNFSLEEVREMMKLYAELAVKELPDKEDLVFETAEKLADVIEEETGDEVLADEFEAYTARLLYERSLA
B9: GBRAP_125_2987 (protein)
chain: SEEELLEDLRRLARALGLSEEEAEELVRLAREHSVRQTLYALALALGWEEVAEAVARLTEEEAREVVRRATEEILANPDMTPEEVVELLLRLAREALARR
B10: GBRAP_139_3724 (protein)
chain: AALEKAKKEAKELVKKYRNDLEKLAKELAELIASVDDETALAIAEAAAEELKDWSWEEWEEFIELLSKELKKLGLEEDRILAIEGTLEAVAAKHLIEKEK
B11: GBRAP_26_5457 (protein)
chain: VEEAIDEARDNLEKVAKEVLTPEDAAAVITEISTEAWEIEKVVEEHPNDLEKIEKAIEDFKEDVLETLDLLDVPEDKKKIIKEKIEEEAKRLKEVAKEKV
B12: GBRAP_128_3484 (protein)
chain: SVEEAVAKVKELMEKIKTSSLEEVKEIAKEIVELLGSLDDESAEAAAEVIIKELPKLSAEKLDILADVFRENRDKLDPLKANLVADVQVEALNEALEKEE
B13: GBRAP_52_6038 (protein)
chain: MRERMRALAEEIVALVRAGRLDEARALIERLVATETPEELELLGEELARLAREAAPEDLDAIMEAADMFADALIAAGYDEVFADDVLARVARAAVENLAA
B14: GBRAP_160_4089 (protein)
chain: MEEVEKLIEEIREEAERTKEMIEGETAEQRATIVRGLGGDVIMLLFESGVVSDEVIDFADEEFDALVDTILANPDLTYEEVKAMLDEVVEKIIEKIKEEA
B15: GBRAP_128_3331 (protein)
chain: MNEERIEEARELAREMEKADVEEVREITRRILELMGEASEEEREIIAEIFREALEKLSAEKLEAVADEIRRRRPELDPLTQLYADDLEVEALNLAEEKEE
B16: GBRAP_78_6714 (protein)
chain: KVKELLEKAIKELNKAAKLALKLPEERSNEILDLLVEAANLLHEVMEEGVEKEEALKKLEEALKKLEEAEKLLGENDKELKKEVEKAKKLVEEAIKKLKE
B17: GBRAP_80_6854 (protein)
chain: AEAALAAALAALAAVLPENAAVAKEIVEIAKELGVPLETITDFLNAMTELAKVDPAKAGELLKELLEELKELKEEGDSEGATAVLQGYAGEALLLAEELE
B18: GBRAP_184_5215 (protein)
chain: TLKRVAIEATTAEEAIAKADAAVAAAQAAGVDLVLHVFAENMSLEEIEEVMKYLSGLLKAGKIKDAVLHVEDDLSEEEIDKLIELADKYGIRLVLALPDS
B19: GBRAP_52_6103 (protein)
chain: MREELRKKLLEILELVKAGKLEEAEKEIRKLVEELDDEELRLFADELARLAREAAPEDLDAVWRLAEMIAKAMEEAGKDEVLVDYLLARTAAALYEREQA

Each binder was assayed against GABARAP, O95166 (assay: median log2 fold change of GCK-ALFA target abundance (FLAG IP / Myc IP barcode read proportion) (log2 ratio); each designed protein is fused to an ALFA-tag nanobody in HEK293 cells to bring the named protein to FLAG-tagged glucokinase (GCK); Myc marks an untargeted standard; higher = target protein stabilised (more abundant)). Conditions: target protein: 3xFLAG-MCP-GCK-ALFA reporter; HEK293 landing pad (RPLP).
Sequence of GABARAP, O95166 (O95166 whole entry, the tested form may be a part): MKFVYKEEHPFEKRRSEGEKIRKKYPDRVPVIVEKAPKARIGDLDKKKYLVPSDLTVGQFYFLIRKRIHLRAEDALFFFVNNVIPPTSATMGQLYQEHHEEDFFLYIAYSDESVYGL
Summary of the method: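 Sequencing of reverse-transcribed, amplified circular RNA barcodes from anti-FLAG and anti-Myc immunoprecipitates provided the readout for an ALFA-nanobody-fused binder library recombined into HEK293 landing-pad cells. Those cells were induced with 2 μg mL^−1 doxycycline, transfected with a plasmid expressing a FLAG-tagged target and a Myc-tagged standard, and lysed after 48 h. Target abundance is the per-binder median log2 ratio of FLAG to Myc barcode read proportions. Only barcodes at a proportion of ≥10^−7 in both replicates and binders with ≥3 barcodes per replicate were kept, with a 10^−6 pseudocount added before the two replicates were pooled.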

First: B1
Second: B2
The “median log2 fold change” value of the first is higher: 0.374 for the first, -0.0352 for the second.

First: B3
Second: B4
The “median log2 fold change” value of the first is higher: 0.0852 for the first, -0.242 for the second.

First: B5
Second: B6
The “median log2 fold change” value of the first is higher: 0.283 for the first, 0.018 for the second.

B7 and B8 are within 0.2 log units of each other in “median log2 fold change” value: 0.127 for the first, 0.13 for the second.

B9 and B10 are within 0.2 log units of each other in “median log2 fold change” value: -0.38 for the first, -0.224 for the second.

First: B11
Second: B12
The “median log2 fold change” value of the first is lower: -0.278 for the first, 0.0363 for the second.

B13 and B14 are within 0.2 log units of each other in “median log2 fold change” value: 0.0763 for the first, 0.0826 for the second.

B15 and B16 are within 0.2 log units of each other in “median log2 fold change” value: 0.286 for the first, 0.33 for the second.

B17 and B18 are within 0.2 log units of each other in “median log2 fold change” value: 0.123 for the first, 0.157 for the second.

For B19, the “median log2 fold change” value was 0.0923.
